About 2,200 (0.71%) of roughly 310,000 compounds showed an effect of 50% or more. The effect is printed as a negative number. The list shows a part of the results.

The target of this test is human ether-à-go-go-related gene (hERG) potassium channel (human, UniProt Q12809). The test is described as follows: primary screen, population patch clamp on CHO cells stably expressing hERG.
Sequence of human ether-à-go-go-related gene (hERG) potassium channel (Q12809 whole entry, looked up): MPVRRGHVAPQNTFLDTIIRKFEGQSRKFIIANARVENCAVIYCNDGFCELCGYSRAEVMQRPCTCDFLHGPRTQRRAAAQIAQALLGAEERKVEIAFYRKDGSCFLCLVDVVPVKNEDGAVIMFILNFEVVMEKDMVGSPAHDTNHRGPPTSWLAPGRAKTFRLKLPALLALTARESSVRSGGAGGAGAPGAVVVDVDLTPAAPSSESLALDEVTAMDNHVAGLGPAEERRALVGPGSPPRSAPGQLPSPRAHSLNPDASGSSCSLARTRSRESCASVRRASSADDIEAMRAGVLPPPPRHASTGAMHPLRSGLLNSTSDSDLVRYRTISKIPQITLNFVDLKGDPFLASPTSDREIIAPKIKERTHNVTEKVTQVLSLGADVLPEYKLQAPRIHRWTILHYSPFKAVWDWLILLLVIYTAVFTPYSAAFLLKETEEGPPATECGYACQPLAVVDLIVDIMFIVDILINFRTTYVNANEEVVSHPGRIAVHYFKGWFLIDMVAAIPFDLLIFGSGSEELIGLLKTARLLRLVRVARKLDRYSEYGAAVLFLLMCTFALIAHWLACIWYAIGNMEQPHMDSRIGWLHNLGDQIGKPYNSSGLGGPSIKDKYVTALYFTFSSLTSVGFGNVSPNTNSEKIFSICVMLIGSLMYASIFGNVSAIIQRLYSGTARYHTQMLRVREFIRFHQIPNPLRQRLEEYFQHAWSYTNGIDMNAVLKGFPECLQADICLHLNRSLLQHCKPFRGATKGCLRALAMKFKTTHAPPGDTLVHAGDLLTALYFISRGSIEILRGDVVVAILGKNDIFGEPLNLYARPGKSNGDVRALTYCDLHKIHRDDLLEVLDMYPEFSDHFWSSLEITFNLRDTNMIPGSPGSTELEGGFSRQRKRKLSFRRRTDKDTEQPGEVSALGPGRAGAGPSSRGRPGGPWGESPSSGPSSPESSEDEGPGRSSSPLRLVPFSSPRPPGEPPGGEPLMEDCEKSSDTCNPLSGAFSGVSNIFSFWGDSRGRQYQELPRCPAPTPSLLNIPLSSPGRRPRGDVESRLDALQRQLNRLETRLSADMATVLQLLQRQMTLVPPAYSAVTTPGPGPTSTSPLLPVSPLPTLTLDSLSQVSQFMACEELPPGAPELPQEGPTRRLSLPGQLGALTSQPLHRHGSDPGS
As to `O=C(NC1CCCC1)c1cc(S(=O)(=O)N2CCCC2)ccc1Cl`, the “hERG current change (%, negative = inhibition) at 1uM” value was determined as 5.71%.
Next, `O=C1OCCN/C1=C\C(=O)c1ccc(Cl)cc1`: 12.1%; `CCn1cc(C(=O)N2CCCC(C(=O)c3ccc4ccccc4c3)C2)cn1` (centres unmarked): 1.11%; `Cc1sc2ncnc(N3CCC(C(=O)Nc4ccc(F)cc4Cl)CC3)c2c1C`: 16.3%.
Next, `Cc1cc(C(=O)CCC(=O)N2CCN(S(=O)(=O)c3ccccc3)CC2)c(C)s1`: 10.4%; `Cc1ccc(-c2nc(CN3CCN(c4cnccn4)CC3)c(C)o2)o1`: 9.15%; `Cc1cccc(OCC(=O)Nc2ccc3oc(=O)ccc3c2)c1`: 32.6%.
The same measure for `CCOC(=O)NCc1cc(-c2nn(C)c(=O)c3ccccc23)ccc1C`: 8.38%; for `COc1ccc(Oc2nc3c(C)cccn3c(=O)c2/C=C(\C#N)C(N)=O)cc1`: 3.93%; for `COc1ccc(C(=O)Nc2ccc(NC(=O)c3ccccc3)cc2)cc1S(=O)(=O)N1CCOCC1`: 16%.
Take `C=CCn1c(=O)c2ccc(C(=O)NCc3ccccc3)cc2n(Cc2ccc(Cl)cc2)c1=O`: the “hERG current change (%, negative = inhibition) at 1uM” value is recorded as 2.33%.
The same measure for `CCCCC(=O)Nc1cccc(NC(=O)c2ccc3c(c2)OCO3)c1`: 5.36%; for `Cc1ccc(NC(=O)c2cc(NC(=O)c3ccccc3C(=O)O)ccc2N2CCCCC2)cc1`: 17%.
The same measure for `CCN(Cc1ccccc1)C(=O)Cn1c(=O)n(CC(=O)NCc2ccco2)c(=O)c2sccc21`: -10.8%; for `O=C(c1cccc(F)c1)N1CCCC(C(=O)N2CCCCCC2)C1` (centres unmarked): 15.9%; for `COc1ccc(/C(C)=N/NC(=O)c2ccccc2N)cc1`: -3.53%.
In the case of `COc1ccnc(CSC(N)=Nc2cccc(C(F)(F)F)c2)c1`, the “hERG current change (%, negative = inhibition) at 1uM” value was -2.06%.
Next, `CC1Cc2ccccc2N1C(=O)COC(=O)Cc1ccc(F)cc1` (centres unmarked): 4.75%; `Cc1nnn(-c2nonc2N)c1C(=O)N/N=C/c1cccc2ccccc12`: -0.425%; `O=C(CCn1cccc1)NCc1ccc(Cl)cc1`: 6.13%.
For the compound `Br.O=C(CN(Cc1ccccc1)C1=NCCS1)c1ccccc1`, the “hERG current change (%, negative = inhibition) at 1uM” value is reported as -5.07%.
Next, `O=C(COC(=O)c1ccccc1)Nc1cccc(S(=O)(=O)NC2=NCCCCC2)c1`: 20.6%.
`CCN(CC)S(=O)(=O)c1cc(NC(=O)c2cc(-c3ccccn3)nc3ccccc23)ccc1C`: the “hERG current change (%, negative = inhibition) at 1uM” value is reported as 19.9%.
Consider `O=C(c1cn(-c2ccccc2)nc1-c1ccncc1)N1CCCCC1`, for which the “hERG current change (%, negative = inhibition) at 1uM” value is given as -0.0019%.
The same measure for `CN(C)CCCNCCCNC(=O)/C(=N\O)c1ccccc1`: 7.37%; for `O=C1CNC(=O)N1CC(=O)N1CCCc2ccccc21`: 1.69%.
The same measure for `c1ccc(-c2nnnn2CCOCCn2nnnc2-c2ccccc2)cc1`: 9.77%; for `Cc1ccccc1C(=O)NCCNC(=O)c1cnccn1`: 9.2%.
The same measure for `CC1(C)C2CCC1(C)C(OC(=O)C[n+]1ccccc1)C2.[Cl-]` (centres unmarked): 16.8%; for `Fc1ccccc1NC(=S)NNc1ncc(C(F)(F)F)cc1Cl`: 15%.
In the case of `CCCCN(c1ccccc1)S(=O)(=O)c1cccc(C(=O)O)c1`, the “hERG current change (%, negative = inhibition) at 1uM” value stood at 5.27%.
Next, `COc1ccc(CN(CC2CCC(C(=O)O)CC2)C(=S)Nc2ccc(C)c(Cl)c2)cc1` (centres unmarked): 12.5%; `CN(C(=O)COC(=O)C(Cc1ccccc1)NC(=O)c1ccccc1)c1ccccc1` (centres unmarked): 6.68%; `COc1ccc(OC)c(NC(=O)Cn2c(CCC(=O)O)ccc2-c2cccs2)c1`: 8.9%.
As for `CC(C)(O)[C@@H]1[C@@H]2C[C@@]3(CC[C@]4(C)C(CCC5[C@@]6(C)CC[C@H](O)C(C)(C)C6CC[C@]54C)[C@@H]13)C(=O)O2` (some centres unmarked), the “hERG current change (%, negative = inhibition) at 1uM” value came out at 8.97%.
The same measure for `CN(C)S(=O)(=O)c1ccc(C(=O)N2CCOCC2)cc1`: 14.1%; for `Cc1cc(C)cc(OC(=O)c2cccnc2)c1`: 11.8%.
Regarding `COC(=O)CSc1ccc2c(N)c(C(=O)OC)sc2c1`, the “hERG current change (%, negative = inhibition) at 1uM” value is 4.25%.
In the case of `CN(C(=O)Cc1noc2ccccc12)c1ccccc1`, the “hERG current change (%, negative = inhibition) at 1uM” value is recorded as 19.5%.
Next, `COc1cc(C2C(C#N)=C(N)Oc3cc(C)n(CCc4ccccc4)c(=O)c32)cc2c1OCO2` (centres unmarked): 4.34%; `COc1ccc(CC(=O)Nc2ccc(C(=O)Nc3ccccc3C(=O)O)cc2)cc1OC`: 11.9%; `Cc1ccc(C(=O)NCC(=O)OCC(=O)NCC(F)(F)F)cc1`: 7.57%.
Next, `CC1(C)CC(=O)C(C=NC2CC(C)(C)NC(C)(C)C2)=C(O)C1`: 9.28%.
The same measure for `O=C1NC(=O)N(Cc2ccccc2)C(=O)/C1=C\N1CCCc2ccccc21`: 1.69%.

The record behind these values is paper PMC4336329 (PLoS ONE, 2015).
